Results reported in the supplement of paper PMC12632987.
The full ranking holds about 1,800 sequences; the median of “median log2 fold change of GCK-ALFA target abundance (FLAG IP / Myc IP barcode read proportion)” is about 0.14, and the lowest 2% start at about -0.84. The list shows a part of the results.

T1: TRAF2, Q12933
T1 chain: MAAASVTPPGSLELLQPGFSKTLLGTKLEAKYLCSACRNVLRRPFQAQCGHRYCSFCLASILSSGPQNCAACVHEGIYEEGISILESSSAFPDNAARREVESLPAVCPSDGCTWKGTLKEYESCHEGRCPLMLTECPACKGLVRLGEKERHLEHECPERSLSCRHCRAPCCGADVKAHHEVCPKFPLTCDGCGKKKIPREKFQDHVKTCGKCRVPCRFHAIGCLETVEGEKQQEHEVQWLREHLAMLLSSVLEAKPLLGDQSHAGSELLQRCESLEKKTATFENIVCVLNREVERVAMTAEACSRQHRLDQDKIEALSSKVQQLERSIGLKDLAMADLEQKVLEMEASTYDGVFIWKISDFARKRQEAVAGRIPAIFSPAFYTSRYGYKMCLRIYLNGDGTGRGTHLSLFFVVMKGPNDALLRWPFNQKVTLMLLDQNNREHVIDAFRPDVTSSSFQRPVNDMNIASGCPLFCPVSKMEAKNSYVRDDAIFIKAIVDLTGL

B1: traf2_out_17_162_1612 (protein)
chain: SSLEATLKELLKKKEELEKKLKELEEKLKNISKLSKEELSDLLVEASEARREALEALEKLRSLKDKLDPELYKELSEKFEEIAEKFQKLANKFYKELEKK
B2: traf2_out_13_95_1200 (protein)
chain: EEEKTKKIREVTNKIADELLDFADKTAEEVEKETGREDHKERILKALNGNGINAAIQVLRELAKEDPEYAEIYLKAAEELEAKREEAGKEVAKELKKIEE
B3: traf2_out_16_62_1468 (protein)
chain: EEEKKKLLKEADEYIDANQELRDTVITFRSGGDKEAALKKLAELAEKYGELMKELLDALKQALADPENQAEYLAKADELATEVRTKLVKKALELEEKAKK
B4: traf2_out_20_3_2097 (protein)
chain: EELEKELEKALEEALKLIKEAIKIADKETAKKLEKLAKELKKARELPLEDRLVKLSEVRRKLLELAEEAKKKGKEELAKILEEAAEEINRAMNLAYKIIE
B5: traf2_out_20_3_2227 (protein)
chain: EELEKEAEKKLEEAEKQLKEIIKVADEEDKKVVEKMLKELKEAKKLDPVDRLVVVSKVRRTLLELAQRARARGNEELAKKLEEAAELLQKLMQLLYKIIE
B6: traf2_out_5_189_2330 (protein)
chain: SPKELEEERDRERARRLTKEANALLAEAQEKGLSPEEFIDRALARLAELSLEDARLFRGIMYAIALNTAWANNDEELEAAAREFRERAAALIAAREAAAA
B7: traf2_out_6_166_2467 (protein)
chain: EEEKLKRIREIIEELGKYPAEIVIEAFEILAEKRDDRRATLARQLASGVRQGQKAGLDVKTILSAFADGMLALGVPVEEILELFEEVLKIAEELEKKRKE
B8: traf2_out_17_178_1728 (protein)
chain: SKEEILKKISEVADKRLDVNKKAMDELRAIAEAEGVLTPELAARLDAVSKTSNLYALQEVAEEVIARSSSAAEVQALLDKTTKELKKLNKEIQELVEKLE
B9: traf2_out_13_95_1180 (protein)
chain: SAETKEKINEIADEMIEEVEKILAEAAEKVADDPEVKAALEEIRETARTKGVSTAIHQLEELAAANPEHKELLTEALEKIKEVRREAGKKVAEIIKEEKE
B10: traf2_out_11_155_688 (protein)
chain: EKERELNNELVDKVTEIEERLKEKVLEILREAAAAHPEHREEVEALVEEHRGWSGSSLARAAAQLFRELGLEEEAKRVEELLEKAQEEKNKVLKEIEAKL
B11: traf2_out_17_178_1735 (protein)
chain: SKEEILKEISKLADELLDTTKTAMDKIKAILKEEGVLTPELEARLDAVAKNGNLYAFEEVADEAIALSSRKEELTALKNETTAKMKELNKKIQEAVQKLE
B12: traf2_out_20_3_2087 (protein)
chain: SELEKELEEELKKAEELLKKAQAAADPKTAEKLKKLIERLKESRELDPTDRLVEISEIRRELLLLQQEAKAAGKAELAALLEKAIEELGRAMNLLMKIIE
B13: traf2_out_17_162_1479 (protein)
chain: MSIEEKVERLERELEELEEEARRLREELERLEEKSKEEITDLLVEVSEARRRALELAEEFEELAPEIGEEKARELADRAREIAEELQRIANEIYKELEKK
B14: traf2_out_15_48_1336 (protein)
chain: MTEALQKAAREFNERADKAREEVAKTLKELLPKVNPELQKKVEELLKLVESGAPLRDIRARLKELQKEANPEVQKELDKQIEKIDEVLREGSKRFNEVLK
B15: traf2_out_13_95_1074 (protein)
chain: SLELAKKIMEIADKAEEEMLKLLKKAAEELKDNPEAVKVLEEAAKLAETKGWSAAIHLLKEAAKADPENKEKFEALIKELEAIRTKAGKEVAKLIKEAEE
B16: traf2_out_12_187_948 (protein)
chain: SVEEELLEAAKAGAKAALKALAAAGADDPRLQELRKLLKEAEKALKKNPSIASDLLVAASLVRRAVRLLEDGADPEEVEAALEEARRELEEVLKEAKKLE
B17: traf2_out_11_155_737 (protein)
chain: EEKQKLIQEMNDKIMDLFEEAREKALEIAEEAAKAHPEHKEAIEKKIEESKGLSYRSFIRSMIELFKELGLEEYAKKLEELLEETQKKASKIVIETEKKL
B18: traf2_out_13_95_1053 (protein)
chain: SEETAKKIMEVADKMEEEALALLERAQAEVADDPEAKAVMDEALRLARTRGISEAIHLLREAQAADPAHKARFAALIAELEALRREAGRKVAEILKEEKE
B19: traf2_out_11_155_736 (protein)
chain: EEKQKLIQEMNDKIMELFEKAKEEALKIVEEAAKKHPEHKEKLEAKIEETKGLSYRSFILQLIRLFKELGLEEYAKKLEELLEKTQKEASKIVIETEKKL

Target: T1, TRAF2, Q12933
Experiment: median log2 fold change of GCK-ALFA target abundance (FLAG IP / Myc IP barcode read proportion) (log2 ratio); each designed protein is fused to an ALFA-tag nanobody in HEK293 cells to bring the named protein to FLAG-tagged glucokinase (GCK); Myc marks an untargeted standard; higher = target protein stabilised (more abundant)
Settings: target protein: 3xFLAG-MCP-GCK-ALFA reporter; HEK293 landing pad (RPLP)
Method in brief: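 HEK293 landing-pad cells received a recombined binder library fused to the ALFA nanobody and were induced with 2 μg mL^−1 doxycycline, then transfected with a plasmid encoding a FLAG-tagged target and a Myc-tagged standard. Lysates were collected after 48 h for anti-FLAG and anti-Myc immunoprecipitation, and the circular RNA barcodes were reverse transcribed, amplified and sequenced. Target abundance for each binder is the median log2 ratio of FLAG to Myc barcode read proportions. Barcodes had to reach a proportion of at least 10^−7 in both replicates, each binder needed at least 3 barcodes per replicate, a pseudocount of 10^−6 was applied, and the two replicates were pooled.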

B1 and B2 are within 0.2 log units of each other in “median log2 fold change” value: 0.155 for the first, 0.311 for the second.

Compared with B3, B4 is lower in “median log2 fold change” value: 0.58 for the first, 0.141 for the second.

B5 and B6 are within 0.2 log units of each other in “median log2 fold change” value: 0.226 for the first, 0.0828 for the second.

Compared with B7, B8 is higher in “median log2 fold change” value: -0.123 for the first, 0.22 for the second.

Going from B9 to B10, the “median log2 fold change” value rises from -0.534 to 0.217.

B11 and B12 are within 0.2 log units of each other in “median log2 fold change” value: 0.157 for the first, 0.116 for the second.

B13 and B14 are within 0.2 log units of each other in “median log2 fold change” value: 0.0731 for the first, -0.0278 for the second.

Compared with B15, B16 is higher in “median log2 fold change” value: -0.3 for the first, 0.215 for the second.

Going from B17 to B18, the “median log2 fold change” value rises from -0.0235 to 0.192.

With B19 the “median log2 fold change” value was 0.079.
